Laboratory results taken from PubChem BioAssay AID485294 (National Center for Advancing Translational Sciences (NCATS), 2010).
The whole screen tested about 370,000 compounds, of which about 150 (0.041%) were called active. This list was built around the results that the source calls inconclusive (neither active nor inactive); the mix of calls is not that of the screen. The call rests on the fitted dose curve; in most records, active means well fitted inhibition curve with a large enough effect; inconclusive means small, poorly fitted or top-dose-only effect; inactive means flat fitted curve, though single readings scatter. Potencies of inconclusive entries are left out as doubtful fits.

biological target: Beta-lactamase (Escherichia coli (strain K12)) (UniProt P00811); assay: qHTS Inhibitors of AmpC Beta-Lactamase (assay with detergent); details: AmpC hydrolysis of nitrocefin, absorbance 480 nm, 0.01% Triton; activity change, negative = inhibition: at 114 µM (top of the series); further: nearly all actives have a fitted effect of over 25% in size;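 on activity change, negative = inhibition: 0% = no-compound wells and -100% = no-enzyme wells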
UniProt P00811, sequence (P00811 whole entry, looked up): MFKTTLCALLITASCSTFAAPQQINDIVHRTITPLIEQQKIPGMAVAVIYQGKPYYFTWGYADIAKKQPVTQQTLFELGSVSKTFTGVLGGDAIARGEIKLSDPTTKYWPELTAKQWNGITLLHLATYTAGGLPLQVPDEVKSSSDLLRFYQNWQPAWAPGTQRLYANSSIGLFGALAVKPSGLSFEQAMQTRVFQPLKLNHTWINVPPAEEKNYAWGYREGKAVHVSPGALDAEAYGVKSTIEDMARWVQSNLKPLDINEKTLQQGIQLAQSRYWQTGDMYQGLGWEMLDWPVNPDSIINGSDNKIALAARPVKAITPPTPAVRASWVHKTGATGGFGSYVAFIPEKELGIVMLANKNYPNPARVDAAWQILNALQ
Outline: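 AmpC (5.3 nM in the dispensed reagent) in 20 mM phosphate pH 7.0 with 0.01% (detergent screen) or 0.0001% Triton X-100 was preincubated with compounds for 15 min at room temperature. Nitrocefin was then added from an 800 uM solution, and hydrolysis was followed at 480 nm.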
Potency means the concentration at half of the fitted maximal effect; tags describe the fitted curve by direction and shape.

Row | SMILES | Potency | activity change, negative = inhibition
1 | O=C(C1CCOCC1)N1CCCC(N2CCN(c3ccc(F)cc3)CC2)C1 (stereo not given) | inconclusive [inhibitor, full curve] | –
2 | COc1ccc(C(=O)CSc2ncn[nH]2)cc1OC | inconclusive [inhibitor, partial curve, poor fit] | –
3 | Cc1ccc(C(=O)c2coc3ccc(O)c(CN4CCN(C)CC4)c23)cc1 | inconclusive [inhibitor, partial curve, poor fit] | –
4 | O=C(N/N=C/c1ccco1)c1cccc(N2Cc3ccccc3C2)c1 | – | inactive: 0.118%
5 | Clc1cccc(N2CCN(c3nc4ccccc4n4nnnc34)CC2)c1 | – | inactive: 17.2%
6 | Cc1cc(NC(=O)CCC(=O)N(CCC(C)C)CC(=O)NCC2CCCO2)no1 (stereo not given) | inconclusive [inhibitor, full curve, poor fit] | –
7 | Cc1cc(NC(=O)CSc2nc(C3CC3)nc3sc(C)c(C)c23)no1 | inconclusive [inhibitor, full curve, poor fit] | –
8 | COc1ccc(NC(=O)/C(N=Nc2cc(S(=O)(=O)Nc3ccc(OC)cc3)ccc2OC)=C(\C)O)cc1 | inconclusive [inhibitor, full curve, poor fit] | –
9 | Cc1cccc(CSC2=NCCN2C(=O)c2ccc(Br)o2)c1 | inconclusive [inhibitor, full curve, poor fit] | –
10 | CCC(C)Nc1nc(OC)nc(N(C)C#N)n1 (stereo not given) | inconclusive [inhibitor, full curve, poor fit] | –
11 | S=c1[nH]nc(-c2ccncc2)n1Cc1ccccc1 | inconclusive [inhibitor, full curve] | –
12 | COc1ccc(C2/C(=C(/O)c3ccccc3)C(=O)C(=O)N2c2ncccn2)cc1OC (stereo not given) | inconclusive [inhibitor, partial curve] | –
13 | N/C(=N\OC(=O)C(c1ccccc1)c1ccccc1)c1cccnc1 | – | inactive: -5.51%
14 | CC(=O)c1cccc(NC(=S)NC(=O)c2cncc(Br)c2)c1 | inconclusive [inhibitor, full curve, poor fit] | –
15 | COc1ccc(/C=C(/NC(=O)c2cccs2)C(=O)Nc2ccc(C)cc2)cc1OC | inconclusive [inhibitor, partial curve, poor fit] | –
16 | Cc1cccc(OCc2nnc(SCC(=O)O)n2-c2ccccc2)c1 | inconclusive [inhibitor, partial curve, poor fit] | –
17 | O=C(COc1ccccc1)N1CCN(c2nnc(-c3ccccc3)c3ccccc23)CC1 | – | inactive: -12.9%
18 | O=C(OCC1CCNCC1)c1ccc2c(c1)OCO2 | inconclusive [inhibitor, full curve, poor fit] | –
19 | CCOC(=O)c1c(-c2cccc([N+](=O)[O-])c2)csc1NC(=O)C1CC1 | inconclusive [inhibitor, single point] | –
20 | CC(Oc1ccc2c3c(c(=O)oc2c1)CCC3)C(=O)NCC1CCC(C(=O)O)CC1 (stereo not given) | inconclusive [inhibitor, partial curve] | –

Row | SMILES | Potency | activity change, negative = inhibition
21 | CN(C(=O)CSc1nnc(COc2ccccc2F)n1N)C1CCCCC1 | inconclusive [inhibitor, full curve] | –
22 | CCOC(=O)c1ccc(-n2c(CCC(=O)O)ccc2-c2ccc(Br)cc2)cc1 | – | inactive: 10.9%
23 | CC(C)C(C(=O)Nc1ccc2c(c1)OCCO2)N1C(=O)c2ccccc2C1=O (stereo not given) | inconclusive [inhibitor, full curve] | –
24 | Cc1ccc(OCCn2nc3ccccc3n2)c(C)c1 | inconclusive [inhibitor, full curve, poor fit] | –
25 | N#CC1=C(N)Oc2n[nH]c(-c3ccc(F)cc3)c2C1c1cccc(OC(=O)N2CCOCC2)c1 (stereo not given) | inconclusive [inhibitor, full curve, poor fit] | –
26 | COc1cccc(NC(=O)Cn2nc(Cc3cccnc3)c3ccccc3c2=O)c1 | inconclusive [inhibitor, full curve, poor fit] | –
27 | CCCCc1nc2cc(C(=O)N3CCCCC3COC)ccc2o1 (stereo not given) | inconclusive [inhibitor, full curve, poor fit] | –
28 | Cc1ccc(S(=O)(=O)NC(C)C(c2cccs2)N2CCN(C)CC2)cc1 (stereo not given) | inconclusive [inhibitor, full curve, poor fit] | –
29 | O=C(Nc1cccc(F)c1)/C(=C\c1ccco1)NC(=O)c1cccs1 | inconclusive [inhibitor, partial curve, poor fit] | –
30 | Cc1nn2c(=O)cc(COC(=O)c3ccco3)nc2s1 | – | inactive: -2.27%
31 | CCOC(=O)N1CCC(Nc2c(NCCN3CCN(c4cccc(Cl)c4)CC3)c(=O)c2=O)CC1 | inconclusive [inhibitor, full curve, poor fit] | –
32 | COc1cc(C(=O)Nc2sc3c(c2C#N)CCN(C(C)=O)C3)cc(OC)c1OC | inconclusive [inhibitor, full curve, poor fit] | –
33 | Cc1cc(NC(=O)c2cc(-c3ccc(C)c(C)c3)nc3ccccc23)no1 | inconclusive [inhibitor, partial curve] | –
34 | COc1ccc(CNC(=O)CSc2nc3c(oc4ccccc43)c(=O)n2CC2CCCO2)cc1 (stereo not given) | inconclusive [inhibitor, full curve, poor fit] | –
35 | CCCCC(=O)Nc1nc(C)c(-c2csc(Nc3ccc(Cl)cc3)n2)s1 | inconclusive [inhibitor, full curve, poor fit] | –
36 | CCc1ccc(NCc2cc3ccc(OC)cc3n(CC(=O)Nc3ccc(F)cc3F)c2=O)cc1 | – | inactive: 5.38%
37 | CC/C=C/CC(=O)N[C@@H](c1ccccc1)[C@@H](O)C(=O)O[C@H]1C[C@@]2(O)[C@@H](OC(=O)c3ccccc3)C3[C@](C)(C(=O)[C@H](OC(C)=O)C(=C1C)C2(C)C)[C@@H](O)C[C@H]1OC[C@@]31OC(C)=O (stereo not given in full) | inconclusive [inhibitor, full curve, poor fit] | –
38 | Cc1ccc(S(=O)(=O)N(CC(O)CN2CCCCC2)c2ccccc2)cc1 (stereo not given) | inconclusive [inhibitor, full curve, poor fit] | –
39 | COc1ccc(CCNC(=O)CSc2nnc3ccc(-c4ccncc4)nn23)cc1 | inconclusive [inhibitor, full curve, poor fit] | –
40 | O=C(CSCc1ccc(Br)cc1)NCCc1ccccc1 | inconclusive [inhibitor, partial curve, poor fit] | –

Row | SMILES | Potency | activity change, negative = inhibition
41 | CC(C)(c1ccccc1)c1ccc(OCCCNCCO)cc1 | inconclusive [inhibitor, single point] | –
42 | COC(C(=O)Nc1ccc(Cl)cc1C)c1ccccc1 (stereo not given) | inconclusive [inhibitor, partial curve, poor fit] | –
43 | Cc1ccccc1-n1c(=O)cc(N2CCN(Cc3ccccc3)CC2)[nH]c1=O | inconclusive [inhibitor, full curve, poor fit] | –
44 | O=c1c2ccccc2nc(SCc2ccccc2F)n1C1CCCC1 | inconclusive [inhibitor, partial curve] | –
45 | Cn1c(=O)c([N+](=O)[O-])c(NCC(O)c2ccccc2)c2ccccc21 (stereo not given) | inconclusive [inhibitor, single point] | –
46 | COc1ccc(S(=O)(=O)NCC2CCCN(C(=O)CNC(C)=O)C2)cc1 (stereo not given) | – | inactive: 2.63%
47 | CCC(=O)N1CCc2cc(S(=O)(=O)CCC(=O)Nc3ccc(OC(F)(F)F)cc3)ccc21 | – | inactive: -3.41%
48 | O=C(O)CCCCCNc1ccc2nsnc2c1[N+](=O)[O-] | inconclusive [inhibitor, full curve, poor fit] | –
49 | CCc1nnc(NC(=O)c2ccc(S(=O)(=O)N3CCCC(C)C3)cc2)o1 (stereo not given) | inconclusive [inhibitor, full curve, poor fit] | –
50 | COc1ccc(NC(=O)CNC(=O)c2sc3ccccc3c2Cl)c(OC)c1 | inconclusive [inhibitor, full curve] | –
51 | O=C(Nc1ccccn1)c1ccc2c(c1)OCCO2 | inconclusive [inhibitor, partial curve, poor fit] | –
52 | COC(=O)C1(Cc2cc(-c3ccc(OC)cc3OC)no2)CCN(C(=O)OC(C)(C)C)CC1 | inconclusive [inhibitor, full curve, poor fit] | –
53 | Cc1ccc(C)c(NC(=O)CS(=O)(=O)c2cn(C)c3ccccc23)c1 | inconclusive [inhibitor, full curve, poor fit] | –
54 | COc1ccc(N2C(=NC(=O)C3CCCCC3)SC3CS(=O)(=O)CC32)cc1Cl (stereo not given) | inconclusive [inhibitor, full curve, poor fit] | –
55 | O=C(CCl)NN1C(=O)NC(c2ccccc2)(c2ccccc2)C1=O | inconclusive [inhibitor, full curve, poor fit] | –
56 | CCCc1c(C(=O)OCC)[nH]c2c1C(=O)CCC2 | inconclusive [inhibitor, full curve, poor fit] | –
57 | COC(=O)c1ccc(SCC(=O)NCc2ccccc2)c([N+](=O)[O-])c1 | – | inactive: -14.4%
58 | COc1ccc(OC)c(NC(=O)c2ccc(NS(=O)(=O)c3c(C)noc3C)cc2)c1 | inconclusive [inhibitor, single point] | –
59 | O=C(Cc1ccc([N+](=O)[O-])cc1)NC1CCCCCC1 | inconclusive [inhibitor, full curve, poor fit] | –
60 | CCOc1ncccc1C(=O)OCc1c(Cl)cccc1Cl | inconclusive [inhibitor, full curve, poor fit] | –
